PubChem BioAssay AID445 (National Center for Advancing Translational Sciences (NCATS), 2006)
About 40 (0.04%) of roughly 110,000 compounds were called active. Inconclusive means that the source gave no clear call. Such entries were picked first, then a sample of the others. Calls follow the shape of the dose curve; as a rule, active = well fitted curve in the direction sought with a large enough effect in the signal ratio (not every such curve was filed as active); inconclusive = small, poorly fitted or top-dose-only effect, or a change in a side signal; inactive = flat fitted curve, though single readings scatter; the % refers to the signal ratio. Where the call is inconclusive, the potency comes from a doubtful curve fit.

Assay: IkB Signaling;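 as to IkBa stabilization activation: 0% = basal untreated cells and 100% = reference inhibitor full response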
Settings: ABC-DLBCL IkBa-CBG/CBR dual luciferase ratio (green luciferase fused to IkBa over red control in OCI-Ly3 lymphoma cells), 4 h; IkBa stabilization activation: at 57.1 µM (top of the series), scaled: untreated 0%, proteasome inhibitor 100% unless noted
Method in brief: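 In this assay, an IκBα–CBG68 fusion accumulates when IKK-driven degradation is blocked; native CBR normalizes for cell number. OCI-Ly3 cells were treated 4 h with compound and doxycycline, then green and red light read after Chroma-Glo addition.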
Potency is read from the fitted curve at half-maximal effect.

| SMILES | IkBa stabilization activation | Potency |
| --- | --- | --- |
| CNS(=O)(=O)c1ccc(OC)c(-c2nnc3c4ccccc4c(C)nn23)c1 | inactive |  |
| COc1ccccc1CNC(=O)CN1C(=O)CSc2ccc(S(=O)(=O)N3CCCC3)cc21 | inconclusive: -1.96% [signal inhibitor] |  |
| Cc1ccc(-c2noc(CNC(=O)c3ccc(C(C)(C)C)cc3)n2)cc1 | inconclusive: -0.432% [signal inhibitor] |  |
| COC(=O)c1cc2oc3ccccc3c2n1CC(=O)Nc1ccc(OC)c(OC)c1OC | inactive |  |
| O=C(Nc1ccccn1)c1ccc2ccccc2n1 | inconclusive: 3.33% [signal inhibitor] |  |
| Cc1cc(C)cc(NC(=O)c2nnn(Cc3cc(C)ccc3C)c2N)c1 | inconclusive: 6.93% [signal inhibitor] |  |
| COc1ccc(N2CCN(c3cc(C)nc4nc(-c5ccc(C)cc5)nn34)CC2)cc1 |  | inconclusive: 39.8 µM [rising, single point] |
| COc1ccccc1-c1noc(-c2ccc(N3CCN(c4ccccc4)CC3)c([N+](=O)[O-])c2)n1 | inconclusive: 10.7% [signal inhibitor] |  |
| N#CCSc1nc2c(cc1C#N)CCCC2 | inactive |  |
| CN(C)S(=O)(=O)c1ccc2nc(NC(=O)c3cccnc3)sc2c1 | inactive |  |
| Cc1cccc(C(=O)N2CCc3cc(CNC(=O)CCc4ccccc4)ccc32)c1 | inconclusive: -2.86% [signal inhibitor] |  |
| Cc1cc(C)cc(NC(=O)CSc2nccn2-c2ccccc2)c1 | inconclusive: 1.69% [signal inhibitor] |  |
| CCOC(=O)c1[nH]c(COC(=O)c2ccccc2NC(=O)c2ccco2)c(C(=O)OCC)c1C | inactive |  |
| Cc1cccc2nc(-c3cccnc3)c(Nc3ccc(C(C)C)cc3)n12 | inconclusive: -9.81% [signal inhibitor] |  |
| COc1ccc2c(c1)-c1nc(NC(=O)c3ccco3)sc1CC2 | inconclusive: 3.65% [signal inhibitor] |  |
| Cc1ccc(-c2cc(N)n3nc(-c4ccc(C)cc4)cc3n2)cc1 | inconclusive: 0.175% [signal inhibitor] |  |
| CCOC(=O)c1noc2ncnc(Nc3ccc(C)c(F)c3)c12 | inactive |  |
| COc1ccc(OC)c(C2CC(=O)c3c([nH]c(C(=O)OC4CCC(C)CC4)c3C)C2)c1 (centres undefined) | inactive |  |
| O=C(Cn1cc(SCc2ccc(C(F)(F)F)cc2)c2ccccc21)N1CCCCC1 | inconclusive: 3.56% [signal inhibitor] |  |
| Cc1ccc(-c2nnc(CSc3nc(C)nc4sc(C)c(C)c34)o2)cc1 | inactive |  |
| COc1ccc2c(CNCc3ccc(Cl)cc3)c(C(=O)O)n(Cc3ccccc3C)c2c1 | inconclusive: -0.0236% [signal inhibitor] |  |
| O=C(c1ccco1)N1CCN(c2nc3ccccc3n3nnnc23)CC1 |  | inconclusive: 20 µM [signal inhibitor, partial curve] |
| Cc1ccc2c(c1)nnn2C1CCN(S(=O)(=O)c2ccc(C(=O)N(C)C3CCCCC3)cc2)CC1 | inconclusive: 5.24% [signal inhibitor] |  |

| SMILES | IkBa stabilization activation | Potency |
| --- | --- | --- |
| COc1ccc(NC(=O)c2cnn(-c3ccc(C)cc3)c2-n2cccc2)cc1Cl | inconclusive: -0.472% [signal inhibitor] |  |
| O=C(NCCc1cn2ccccc2n1)c1ccc(Br)o1 | inactive |  |
| Cc1ccc(-n2nc3c(=O)n(CC(=O)Nc4ccccc4F)nc(C)c3c2C)c(C)c1 | inconclusive: 2.41% [signal inhibitor] |  |
| Cc1cc(NS(=O)(=O)c2ccc(NC(=O)COc3ccc(Cl)cc3)cc2)nc(C)n1 | inconclusive: 2.68% [signal inhibitor] |  |
| Cc1ccc(NC(=O)Nc2nnc(N(C)Cc3ccccc3)s2)cc1 | inconclusive: 1.25% [signal inhibitor] |  |
| COc1ccc(S(=O)(=O)N2CCC(c3ccncc3)CC2)cc1Cl | inconclusive: 2.56% [signal inhibitor] |  |
| CN(C(=O)c1cc(-c2ccccc2O)on1)c1ccccc1 |  | inconclusive: 0.316 µM [signal inhibitor, full curve] |
| CCCCOc1c(Cl)cc(C(=O)N(Cc2ccc(C)o2)C2CCS(=O)(=O)C2)cc1Cl (centres undefined) | inconclusive: 2.26% [signal inhibitor] |  |
| COC(=O)c1ccc(-c2cc(C(=O)O)c3cc4c(cc3n2)OCCO4)cc1 | inactive |  |
| Cc1ccc(NS(=O)(=O)c2cccc(C(=O)OCC(=O)NCc3ccco3)c2)cc1 | inconclusive: 1.95% [signal inhibitor] |  |
| CSc1ccc(CCNc2ncnc3onc(C)c23)cc1 | inconclusive: -1.65% [signal inhibitor] |  |
| COc1ccc(NC(=O)c2ccc(-c3ccc(-c4noc(C)n4)cc3C)cc2)cc1OCCN(C)C | inconclusive: -0.267% [signal inhibitor] |  |
| COc1ccc(C(CNC(=O)COc2ccc(C)cc2)N2CCCCC2)cc1 (centres undefined) | inconclusive: 1.77% [signal inhibitor] |  |
| COc1ccccc1NC(=O)c1c(NCc2sccc2C)sc2c1CCCCC2 | inconclusive: 3.86% [signal inhibitor] |  |
| CN(C(=O)Cn1c(=O)n(CCCS(=O)(=O)C2CCCCC2)c(=O)c2ccccc21)c1ccccc1 | inconclusive: 2.96% [signal inhibitor] |  |
| COc1ccccc1-c1nc(S(=O)(=O)c2ccc(Cl)cc2)c(N2CCCCCC2)o1 | inconclusive: 0.292% [signal inhibitor] |  |
| CCOc1cc(C2C(C(=O)OC)=C(C)NC3=C2C(=O)c2ccccc23)ccc1O (centres undefined) | inconclusive: -0.017% [signal inhibitor] |  |
| COc1cccc(-c2oc3ccccc3c(=O)c2O)c1 | inactive: -0.679% [at 11.4 µM, scaled: untreated 0%, proteasome inhibitor 100%] |  |
| Cc1ccc(NC(=O)Cn2c(=O)n(Cc3ccccc3)c(=O)c3c(C)c(C)sc32)c(C)c1 | inactive |  |
| Cc1cccc(C)c1OCC(=O)NCC1(N2CCOCC2)CCCCC1 | inconclusive: 1.21% [signal inhibitor] |  |
| CCc1ccccc1NC(=O)C1=CC(c2ccc(OC)c(OC)c2)=NS(=O)(=O)N1C | inactive |  |
| CC1CCCN(c2csc3ccc(F)cc3c2=O)C1 (centres undefined) |  | inconclusive: 31.6 µM [signal inhibitor, single point] |
| CC1=Nc2ccccc2N=C(NC(=O)CSc2nnnn2-c2ccccc2)C1c1ccccc1 (centres undefined) | inconclusive: 10.1% [signal inhibitor] |  |

| SMILES | IkBa stabilization activation | Potency |
| --- | --- | --- |
| COc1cc2c(cc1OC)-c1cc(NCc3ccccn3)nc(=O)n1CC2 | inactive |  |
| CCCOc1ccc(C(=O)Nc2cccc(-c3nc4ccccc4[nH]3)c2)cc1 | inconclusive: 2.83% [signal inhibitor] |  |
| O=C(Cn1nc(Cc2cccnc2)c2ccccc2c1=O)N1CCN(c2ccccn2)CC1 | inactive |  |
| CC(C)C(=O)NC(c1ccco1)c1ccc2cccnc2c1O (centres undefined) | inconclusive: 3.82% [signal inhibitor] |  |
| CCOc1ccc(N(CC(=O)Nc2ccc(F)cc2F)S(=O)(=O)c2c(C)[nH]c(=O)[nH]c2=O)cc1 | inconclusive: 2.67% [signal inhibitor] |  |
| CN1C(=O)c2ccccc2Sc2ccc(NC(=O)Nc3ccccc3F)cc21 | inconclusive: 2.64% [signal inhibitor] |  |
| Fc1ccc(-c2cc3nc(-c4ccccc4)cc(N4CCOCC4)n3n2)cc1 | inconclusive: 4.55% [signal inhibitor] |  |
| COc1ccc(CNC(=O)C(=O)NCC(c2cccs2)S(=O)(=O)c2ccc(F)cc2)cc1 (centres undefined) | inconclusive: 2.24% [signal inhibitor] |  |
| COc1ccc(CN(CCC(c2ccc3c(c2)OCO3)c2ccccc2OC)C(C)=O)cc1 (centres undefined) | inconclusive: 5.66% [signal inhibitor] |  |
| O=C(NCC(c1ccc2c(c1)OCO2)N1CCN(c2ccccc2)CC1)c1ccccc1F (centres undefined) | inconclusive: 1.12% [signal inhibitor] |  |
| COc1ccccc1OCC(=O)N(Cc1nc(-c2ccc(Cl)cc2)no1)C(C)C | inconclusive: 9.59% [signal inhibitor] |  |
| CCOC(=O)c1ccc(OCC2c3cc(OC)c(OC)cc3CCN2C(=O)Cc2ccc(F)cc2)cc1 (centres undefined) | inconclusive: 2.05% [signal inhibitor] |  |
| Nc1cc(OC(=O)c2ccccc2Br)nn1S(=O)(=O)c1ccccc1 | inconclusive: 13.9% [signal inhibitor] |  |
| Nc1c(C(=O)NCc2ccco2)nnn1Cc1ccccc1 | inactive |  |
| Cc1cc2ccc(=O)oc2cc1OC[C@@H](O)C(C)(C)O | inactive: 2.56% [at 11.4 µM, scaled: untreated 0%, proteasome inhibitor 100%] |  |
| COc1ccc(C(=O)c2coc3ccc(O)c(CN(C)C)c23)cc1 | inactive |  |
| O=C(NCc1ccco1)c1cc(-c2ccco2)on1 | inconclusive: 10.2% [signal inhibitor] |  |
| Cc1ccc(CCNC(=O)C2CCN(S(=O)(=O)c3ccc4c(c3)CCC(=O)N4)CC2)cc1 | inactive |  |
| Cc1ccc(CN2C(=O)c3ccccc3C2C(=O)NC2CCCCCC2)cc1 (centres undefined) |  | inconclusive: 39.8 µM [signal inhibitor, single point] |
| O=C(Nc1cccc(C(=O)N2CCCCC2)c1)c1nsc2ccccc12 | inactive |  |
| Cc1cc(O)c(C(c2ccc(F)cc2)N2CCCCC2)c(=O)n1Cc1ccco1 (centres undefined) | inconclusive: 0.124% [signal inhibitor] |  |
| CCc1ccc(-n2nc(C)c3c(C(=O)Nc4cccc(C(F)(F)F)c4)cc(C)nc32)cc1 | inconclusive: -0.0326% [signal inhibitor] |  |
| Cc1cc(Nc2cccc(C(F)(F)F)c2)nc2ccc(NC(=O)c3ccc(N(C)C)cc3)cc12 | inconclusive: 2.05% [signal inhibitor] |  |
